Assay results from patent US11236120B2, “Azithromycin derivatives with epithelial barrier enhancement properties” (EpiEndo Pharmaceuticals ehf, priority 2015, dated 2022).
Some entries share one result that the patent states for a list of compounds.

Key:
[1] = test system: BCi-NS1.1 cells; experiment: Trans-epithelial resistance of immortalized BCi-NS1.1 cells cultured at air-liquid interface (ALI); assay type: cell-based, human; conditions: BCi-NS1.1 cells at ALI
[2] = test system: Mycobacterium avium complex (MAC); experiment: Assay 2: STC colorimetric microplate assay, comparison over the Mycobacteria studied; assay type: cell-based, M. avium and M. intracellulare
[3] = Mycobacterium avium S1002170205 and Mycobacterium intracellulare S1305150028 (tested up to 1000 μg/ml)
[4] = for each one of the Mycobacteria studied

Compound: CC[C@H]1OC(=O)[C@H](C)[C@@H](O)[C@H](C)[C@@H](O[C@@H]2O[C@H](C)C[C@H](N(C)C)[C@H]2OC(=O)c2ccc(I)cc2)[C@](C)(O)C[C@@H](C)CN(C)[C@H](C)[C@@H](O)[C@]1(C)O [Example 14, [(2S,3R,4S,6R)-4-(dimethylamino)-2-[[(2R,3S,4R,5R,8R,10R,11R,12S,13S,14R)-2-ethyl-3,4,10,13-tetrahydroxy-3,5,6,8,10,12,14-heptamethyl-15-oxo-1-oxa-6-azacyclopentadec-11-yl]oxy]-6-methyl-tetrahydropyran-3-yl]4-iodobenzoate]
- ratio between the TER in the presence of test compound and the TER in the presence of media+diluent alone [1]: greater than 2.0
- MIC concentration relative to the MIC concentration of Azithromycin [2, 3]: over 15 ×
- MIC concentration relative to the MIC concentration of Azithromycin [2, 4]: over 4 ×

Compound: CC[C@H]1OC(=O)[C@H](C)[C@@H](O)[C@H](C)[C@@H](O[C@@H]2O[C@H](C)C[C@H](N(C)C)[C@H]2OC(=O)c2ccc(OC)cc2)[C@](C)(O)C[C@@H](C)CN(C)[C@H](C)[C@@H](O)[C@]1(C)O [Example 23, [(2S,3R,4S,6R)-4-(dimethylamino)-2-[[(2R,3S,4R,5R,8R,10R,11R,12S,13S,14R)-2-ethyl-3,4,10,13-tetrahydroxy-3,5,6,8,10,12,14-heptamethyl-15-oxo-1-oxa-6-azacyclopentadec-11-yl]oxy]-6-methyl-tetrahydropyran-3-yl]4-methoxybenzoate]
- ratio between the TER in the presence of test compound and the TER in the presence of media+diluent alone [1]: greater than 2.0
- MIC concentration relative to the MIC concentration of Azithromycin [2, 3]: over 15 ×
- MIC concentration relative to the MIC concentration of Azithromycin [2, 4]: over 4 ×

Compound: CC[C@H]1OC(=O)[C@H](C)[C@@H](O)[C@H](C)[C@@H](O[C@@H]2O[C@H](C)C[C@H](N(C)C)[C@H]2OC(=O)c2cnc3ccccc3c2)[C@](C)(O)C[C@@H](C)CN(C)[C@H](C)[C@@H](O)[C@]1(C)O [Example 25, [(2S,3R,4S,6R)-4-(dimethylamino)-2-[[(2R,3S,4R,5R,8R,10R,11R,12S,13S,14R)-2-ethyl-3,4,10,13-tetrahydroxy-3,5,6,8,10,12,14-heptamethyl-15-oxo-1-oxa-6-azacyclopentadec-11-yl]oxy]-6-methyl-tetrahydropyran-3-yl]quinoline-3-carboxylate]
- ratio between the TER in the presence of test compound and the TER in the presence of media+diluent alone [1]: greater than 2.0
- MIC concentration relative to the MIC concentration of Azithromycin [2, 3]: over 15 ×
- MIC concentration relative to the MIC concentration of Azithromycin [2, 4]: over 4 ×
